Data reported in PubChem BioAssay AID1159614 (National Center for Advancing Translational Sciences (NCATS), 2016).
Screen size: about 45,000 compounds; about 65 (0.1%) were called active. Calls follow the shape of the dose curve; as a rule, active = well fitted activation curve with a large enough effect; inconclusive = small, poorly fitted or top-dose-only effect; inactive = no such curve, though single readings can be large or run the other way. The list shows a part of the results.

target: Galactocerebrosidase (Homo sapiens) (UniProt P54803); assay: A Novel Cell-Based Assay to Identify Small Molecules for B -Galactocerebrosidase; conditions: 145M-Twi-hGALC-G270D cells (Twitcher mouse brain line with human GALC G270D), HMU-beta-Gal fluorescence, 48 h; series mostly up to 57.5 µM; activation: at the top concentration; also: 0% is about no effect; nearly all actives have a fitted effect of over 65% in size
Sequence of UniProt P54803 (P54803 whole entry, looked up): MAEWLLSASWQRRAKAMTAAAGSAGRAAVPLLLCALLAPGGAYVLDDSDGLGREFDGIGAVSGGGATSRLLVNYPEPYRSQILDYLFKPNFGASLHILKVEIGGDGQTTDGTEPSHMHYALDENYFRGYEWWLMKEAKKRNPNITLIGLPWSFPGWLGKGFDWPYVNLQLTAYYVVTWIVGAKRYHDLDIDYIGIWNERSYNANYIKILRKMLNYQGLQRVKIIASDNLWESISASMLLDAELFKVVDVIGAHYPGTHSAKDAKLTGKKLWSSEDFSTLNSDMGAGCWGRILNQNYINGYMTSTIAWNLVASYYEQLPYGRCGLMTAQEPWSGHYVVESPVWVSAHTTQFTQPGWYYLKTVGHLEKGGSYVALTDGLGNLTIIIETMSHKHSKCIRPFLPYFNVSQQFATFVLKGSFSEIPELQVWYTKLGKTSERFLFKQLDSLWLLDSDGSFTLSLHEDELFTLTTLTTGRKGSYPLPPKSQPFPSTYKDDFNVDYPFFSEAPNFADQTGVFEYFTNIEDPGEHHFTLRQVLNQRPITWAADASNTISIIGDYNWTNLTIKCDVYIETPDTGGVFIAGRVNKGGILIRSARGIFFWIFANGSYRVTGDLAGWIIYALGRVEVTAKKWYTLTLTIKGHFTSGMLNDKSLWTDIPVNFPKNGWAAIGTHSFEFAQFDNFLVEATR
Summary of the method: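 Fluorescence readout: HMU-β-gal cleavage by mutant GALC (0.1 mM final, citrate/phosphate pH 5.2 with 1 mg/mL taurocholate), stopped with carbonate/bicarbonate plus Triton X-100. Cells: murine Twitcher 145M-Twi expressing human G270D GALC; qHTS for activators.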

activation, inactive:
COc1ccc(OC)c(NC(=O)c2ccc3c(SCC(=O)O)c4c(nc3c2)CCCC4)c1 -29.2%
Cc1cccc(CCNC(=O)c2ccc3c(c2)nc2n3CCC(C)C2)c1 (stereo not drawn) -20%
Cc1ccc2nc(COc3ccccc3NC(=O)c3ccccc3C)cc(=O)n2c1 -0.374%
COc1ccc(-c2nnc(SCC(=O)Nc3cc(OC)ccc3OC)nc2-c2ccc(OC)cc2)cc1 -12.8%
CCC(=O)N1c2ccccc2CC1C(=O)NCc1cccc(OC)c1OC (stereo not drawn) -11.2%
COc1cccc(-c2ccc(-c3noc(-c4ccccc4Br)n3)c(OC)n2)c1 -11.2%
Cc1cccc(-c2noc(-c3ccc(NCc4ccco4)c([N+](=O)[O-])c3)n2)c1 -7.54%
Nc1ccc(S(=O)(=O)NC(=O)c2ccccc2)cc1 3.74%
O=C(c1ccco1)N1CCN(c2nc3c(F)cc(F)cc3s2)CC1 -26.3%
O=C(/C=C/c1ccco1)Nc1ccc(F)cc1 -10.2%
COC(=O)c1c(SC)nc2ccccc2c1OCc1ccc(Br)cc1 -0.583%
CCOC(=O)C1CCCN(c2nc3c(S(=O)(=O)c4ccc(Br)cc4)nnn3c3ccsc23)C1 (stereo not drawn) -15.6%
COc1cc(OC)cc(C(=O)Nc2cc(-c3nc4ccccc4[nH]3)ccc2C)c1 -8.6%
Cc1ccccc1CNC(=O)c1nn(-c2ccccc2F)nc1CO 1.09%
COc1cccc2c1Oc1ncccc1N(C(=O)CCC(=O)NCCC(C)C)C2 -2.45%
COc1ccc(C(=O)Nc2ccc(-c3nnc4n3CCCCC4)cc2)cc1 3.74%
CCn1nc(-c2ccccc2)c(-c2ccccc2)c(C(=O)Nc2ccc(S(N)(=O)=O)cc2)c1=O 0.965%
O=c1c2sccc2n(Cc2cc(=O)n3ccccc3n2)c(=O)n1-c1cc(F)ccc1F -13.3%
CCOC(=O)CN1CCCC1=O -15.4%
OC[C@H]1O[C@@H](O[C@@H]2[C@@H](CO)O[C@](O)(CO)[C@H]2O)[C@H](O)[C@@H](O)[C@H]1O -2.52%
COc1ccc(CCNC(=O)CSc2nc3nc(C)c(Cc4ccc(C)cc4)c(C)n3n2)cc1OC -22.8%
CCN(CC)CCCNc1cc(-c2ccccc2)nc(C)n1 -13.7%
Cc1ccc(C)c(OCCn2c(C3CC(=O)N(Cc4ccc(F)cc4)C3)nc3ccccc32)c1 (stereo not drawn) -32%
CCN1CCN(C(=O)c2ccc3c(c2)N(Cc2cccc(Cl)c2)C(=O)c2ccccc2S3=O)CC1 (stereo not drawn) -16.4%
Cc1cc(C)c(NC(=O)CSc2nc3ccccc3c3nc(CCn4cncc4C)nn23)c(C)c1 -4.29%
O=S(=O)(c1ccc(Cl)cc1)c1nc(-c2ccccc2Br)oc1NCc1ccccc1 -14.9%
C=C(CC)C(=O)c1ccc(OCC(=O)O)c(Cl)c1Cl -8.5%
COc1cc(C(=O)N(Cc2ccc(F)cc2)Cc2ccco2)cc(OC)c1OC 0.483%
Cc1ccc(N(CC(=O)Nc2cccc(Cl)c2C)S(=O)(=O)c2c(C)noc2C)cc1 -8.07%
COc1ccc(Cn2c(=O)[nH]c3cc(C(=O)NCCC(C)C)ccc3c2=O)cc1 -10.1%
CCn1c(C)c(C)c2cc(C(=O)NCCCN3CCCCC3C)ccc21 (stereo not drawn) -2.07%
COc1ccc(CNC(=O)CS(=O)Cc2nc(-c3ccc(OC)c(OC)c3)oc2C)cc1 (stereo not drawn) -14.6%
CCOc1ccc2nc(N3CCN(C(=O)c4ccc(S(=O)(=O)CC)cc4)CC3)sc2c1 -33.9%
COc1ccc(-n2cc(C(=O)N(CCN(C)C)Cc3ccccc3)c3ccccc3c2=O)cc1 3.26%
Cc1ccc(/C=C/C(=O)Nc2nc(-c3cccs3)ns2)cc1 -13.1%
CCc1c(C)nc2nncn2c1Nc1ccc(Cl)cc1 -12.4%
COc1ccc(-n2c(=O)c3c4c(sc3n(Cc3ccc(C)cc3C)c2=O)CCC4)c(OC)c1 -5.23%
CCc1nc2ccccc2n2c(-c3ccccc3)c3c(=O)n(C)c(=O)n(C)c3c12 -15.3%
COc1cc(C(CC(=O)NCc2ccccc2)N2Cc3ccccc3C2=O)cc(OC)c1OC (stereo not drawn) -12.6%
CCC(C(=O)Nc1ccc(C(C)=O)cc1)n1cnc2nc3c(cc2c1=O)CCCC3 (stereo not drawn) -21.4%
COc1ccc(OC)c(CNC(=O)Cn2ncc3c([nH]c4ccc(C)cc43)c2=O)c1 4.1%
CCOc1ccccc1NS(=O)(=O)c1ccc2c(c1)CC(C)N2C(=O)C1CC1 (stereo not drawn) -18%
O=C(NCCc1csc(-c2ccc(F)cc2)n1)c1ccco1 -16.2%
CC1=C(C(=O)Nc2cc(Cl)ccc2C)C2(CCCCC2)OC1=O -9.24%
Cc1cc(C)n2nc(CNC(=O)c3ccccc3Cl)nc2n1 -4.03%
Cc1cc(C)cc(NC(=O)CCc2nnc3n(C)c(=O)c4sccc4n23)c1 -4.09%
CCOC(=O)c1c(C)[nH]c(C)c1S(=O)(=O)N(C)CC(=O)N1CCN(c2ccc(Cl)cc2)CC1 -15.2%
COC(=O)C1=C(C)N=C2SCCC(=O)N2C1c1ccc(OCc2ccccc2)c(OC)c1 (stereo not drawn) -10.7%
Cc1ccc(-c2c(C(=O)N3CCN(c4cccc(C)c4)C(C)C3)oc(=O)c3ccccc23)cc1 (stereo not drawn) 2.96%
CCC(CC)C(=O)OCc1cc(=O)n2nc(C3CCCCC3)sc2n1 0.433%
CCOc1ccc(CN2CCc3nc(N4CCN(c5ncccn5)CC4)ncc3C2)cc1OC -10.7%
CC(C)(C)OC(=O)N1CCC(c2c(C(=O)NCCc3ccsc3)cnn2-c2ccccc2Cl)CC1 -17.5%
CCOc1ccc(N2C(=O)CS(=O)(=O)C23C(=O)N(Cc2cccc(Cl)c2)c2ccccc23)cc1 (stereo not drawn) -20.6%
COC(=O)c1c(SC)nc2ccccc2c1OCc1ccccc1Cl -1.57%
CCOc1ccc(NC(=O)C2CCN(c3nc4ccccc4[nH]3)CC2)cc1 -13.4%
Cc1ccc(-c2nc3c(c(SCC(=O)N(C)c4ccccc4)n2)Cc2c(CO)cnc(C)c2O3)cc1 -20.4%
CCOC(=O)c1ccc(NC(=O)CSc2ccc(-c3ccccn3)nn2)cc1 -12.5%
CCN(CC)c1cc(C)c2cc(NC(=O)c3ccccc3Cl)ccc2n1 -11.6%
CCC1CN(C(=O)NCc2ccccc2)c2cc(Cl)ccc2O1 (stereo not drawn) -20%
O=C(Nc1cccc(OCc2cc(=O)n3ccccc3n2)c1)c1ccccc1Br -30%
COc1ccc(S(=O)(=O)NCCc2nnc3ccc(SCC(=O)Nc4cc(C)cc(C)c4)nn23)cc1 -5.08%
COc1ccc(N2CC(NC(=O)COc3ccc(F)cc3)CC2=O)cc1OC (stereo not drawn) -10.8%
CCOCCn1c(C2CCN(CCc3ccc(C(C)(C)C(=O)O)cc3)CC2)nc2ccccc21 -8.16%
